# Laboratory results published in the supplement of paper PMC5499739.
# Over roughly 16,000 sequences, “Z-score” has its median near -0.37; the highest 2% begin near 3.2. Some of the results follow.
# System: RBM10 RRM1-ZnF (GST-tagged construct)
# Assay: RNAcompete 7-mer binding Z-score; higher = stronger binding preference
# Method in brief: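 A one-sided Z-score for enrichment, taken across the probes containing each heptamer motif, was assigned to every such motif. The RNA came from a designed pool of 241 399 sequences up to 41 nt (1.5 nmol), bound by 20 pmol of GST-tagged RBM10 constructs in 1 ml Hepes pH 7.8 buffer with glutathione Sepharose beads for 30 min at 4°C. Four 2-min washes at 4°C preceded identification of bound RNA by microarray hybridisation.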
row,Sequence,RNAcompete 7-mer binding Z-score
1,CUUUUCA,-0.818
2,AUCGCUG,-0.474
3,UGCCCCG,-0.389
4,UCAACCU,-0.776
5,UGGCUAC,-0.00896
6,UCACGUG,-0.253
7,UGCUUCA,-0.707
8,CUUAGAC,-0.668
9,CUAGUCC,-0.743
10,UUGCGGU,0.225
11,UUAAGGG,1.89
12,CACUCCC,-0.591
13,UUCGUUC,-0.727
14,CUUCAAC,-0.72
15,AUGGGUA,3.54
16,UGCAUAG,0.03
17,CUCAGGG,0.673
18,UUCCUCC,-0.769
19,UACCGAA,-0.604
20,CCCAUUU,-1.09
21,AUGCGCC,-0.526
22,CUCUAUA,-0.73
23,CAUAUGA,-0.168

row,Sequence,RNAcompete 7-mer binding Z-score
1,GUUCACC,-0.574
2,CCUGAUA,-0.704
3,GAGGUAG,2.67
4,GUGUAAC,0.683
5,CUCUUGA,-0.772
6,GUAUGUU,-0.0414
7,GAUCCAG,-0.21
8,GCCUCUA,-0.756
9,UAGUACG,0.121
10,AUCGGGC,0.719
11,GGAUACA,2.36
12,AGCUGAG,0.316
13,CCUACCC,-0.418
14,UUAAGGC,-0.0187
15,CCUCGAC,-0.724
16,ACUACUC,-0.714
17,UCAUAAC,-0.568
18,GACUGAU,-0.269
19,UCGGAUG,0.755
20,UGUACGA,0.131
21,UGCUGAA,-0.314
22,AUGCUUG,-0.441
23,UCAUCAC,-0.863

row,Sequence,RNAcompete 7-mer binding Z-score
1,AUAUCCC,-0.704
2,UCUUCUU,-0.763
3,CGGGACU,1.12
4,UAUAGUA,-0.0447
5,GAAGAUU,-0.0317
6,CCGGGCC,-0.548
7,CGAAAAC,-0.509
8,GUUGUUC,-0.347
9,GUCACGA,-0.324
10,AAUUUCA,-0.776
11,AGAGCAG,0.699
12,AGCACUA,-0.132
13,CGUGAGG,1.35
14,ACCAAUA,-0.685
15,GUAUUAA,-0.197
16,GGUCGGG,2.43
17,GCAGCCC,-0.496
18,UGUCUAU,-0.727
19,GUUUAGA,0.0495
20,AUCAGAA,-0.188
21,GAGAACA,0.209
22,GGAUCGA,0.664
23,CAAAUUG,-0.392

row,Sequence,RNAcompete 7-mer binding Z-score
1,AAGGACG,2.51
2,GCCACGA,-0.35
3,GCCGUAU,-0.571
4,UGUUUCU,-0.418
5,GUUGGGG,4.26
6,ACGGGCU,1.26
7,GGGAGGC,2.92
8,CGUCUGA,-0.701
9,AACUGGC,-0.00246
10,GUGCAUU,-0.0902
11,UAGUGUU,0.0365
12,GUCCUGG,0.319
13,CCGGGUG,1.47
14,UAAGACC,-0.675
15,AUGAGGA,2.06
16,GGGCAUC,1.34
17,UUCGACG,-0.548
18,CAUUGCA,-0.636
19,GAACGCC,-0.418
20,GAGCUUG,0.0203
21,UCAUGUC,-0.776
22,ACAUCAU,-0.519
